Reference: PubChem BioAssay AID488969 (Vanderbilt High Throughput Screening Facility, 2010)
The full ranking holds about 110,000 compounds; the median of “z-score” is about -0.1, and the highest 2% start at about 2. The list shows a part of the results. Activity calls are given as the source filed them.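 The calls were made as follows: active = z-score in the third read window above 3 or below -3; inactive = the rest.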

target: Metabotropic glutamate receptor 8 (Rattus norvegicus) (UniProt P70579); assay: mGluR8 Gi/Go-coupled signaling modulation – cell-based, rat, thallium flux, HTS, primary screen (AID 488969); conditions: HEK293 rat mGluR8, GIRK (G protein-gated inwardly rectifying potassium channel) thallium flux, FluoZin2; at 10 µM; stronger effect = higher value; submaximal glutamate (EC20) added with thallium
Sequence of UniProt P70579 (P70579 whole entry, looked up): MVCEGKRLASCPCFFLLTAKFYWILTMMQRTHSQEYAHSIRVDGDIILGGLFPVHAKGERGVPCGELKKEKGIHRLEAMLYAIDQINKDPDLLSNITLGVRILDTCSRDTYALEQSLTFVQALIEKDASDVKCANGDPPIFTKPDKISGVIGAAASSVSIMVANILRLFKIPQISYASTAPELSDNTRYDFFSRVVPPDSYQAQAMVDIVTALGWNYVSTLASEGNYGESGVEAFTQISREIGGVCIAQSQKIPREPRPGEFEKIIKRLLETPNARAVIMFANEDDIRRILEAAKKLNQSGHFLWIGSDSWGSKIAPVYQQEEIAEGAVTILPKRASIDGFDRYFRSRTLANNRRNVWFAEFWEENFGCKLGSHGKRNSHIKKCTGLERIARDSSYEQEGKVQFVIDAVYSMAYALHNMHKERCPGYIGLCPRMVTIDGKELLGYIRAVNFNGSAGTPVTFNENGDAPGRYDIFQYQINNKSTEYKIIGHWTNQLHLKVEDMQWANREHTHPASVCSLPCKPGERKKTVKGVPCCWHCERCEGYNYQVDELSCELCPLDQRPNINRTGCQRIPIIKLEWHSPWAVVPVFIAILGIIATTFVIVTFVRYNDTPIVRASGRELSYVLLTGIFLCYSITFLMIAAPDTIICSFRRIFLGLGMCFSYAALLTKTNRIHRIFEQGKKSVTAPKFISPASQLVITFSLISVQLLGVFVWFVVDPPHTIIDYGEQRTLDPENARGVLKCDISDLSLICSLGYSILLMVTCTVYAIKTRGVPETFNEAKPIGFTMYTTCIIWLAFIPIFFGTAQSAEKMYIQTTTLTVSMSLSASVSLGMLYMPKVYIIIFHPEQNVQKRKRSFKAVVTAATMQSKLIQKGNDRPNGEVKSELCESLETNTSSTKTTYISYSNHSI

Compound | z-score
CC1(C)C2CC=C(/C=N/NC(=O)c3ccccc3Br)C1C2 (centres undefined) | -0.56
Cc1cccc(C)c1NC(=O)Cn1c(CN2CCCCC2)nc2ccccc2c1=O | -0.232
Cc1cc(=O)[nH]c(NN=C(CC(C)C)CC(C)C)n1 | -0.256
O=S(=O)(NCc1ccncc1)c1ccc(S(=O)(=O)NCC2CCCO2)cc1 (centres undefined) | 1.96
O=c1c2ccccc2nc(CSc2ncnc3nc[nH]c23)n1-c1cccc(C(F)(F)F)c1 | -0.256
Clc1ccc(-c2nnn(Cc3nc4ccccc4s3)n2)cc1 | 0.201
CC(Sc1nnc(NC(=O)c2cc3ccccc3oc2=O)s1)c1ccccc1 (centres undefined) | -0.148
Clc1ccc(-c2nnc3n2CCCC3)cc1Cl | -0.122
O=C(Nc1ccc(S(=O)(=O)N2CCCCCC2)cc1)C1CCCO1 (centres undefined) | -0.179
CC(C)n1cc(/C=C2/SC(=O)N(CC(=O)N3CCCC3)C2=O)c2ccccc21 | -0.33
Cc1nc2c(cc1C(=O)N/N=C/c1ccc([N+](=O)[O-])cc1)c(=O)n(C)c(=O)n2C | -0.192
Cc1n[nH]c(C)c1S(=O)(=O)Nc1ccc2c(c1)OCCO2 | 0.0978
Cc1ccc(C2CC(=O)Nc3cc4c(cc32)OCCO4)s1 (centres undefined) | -0.217
O=C(NCCN1CCOCC1)c1ccccc1Oc1ccccc1 | -0.115
COc1ccc(C2C=C(c3ccc(Br)cc3)Nc3nc(N4C(=O)CCC4=O)nn32)cc1 (centres undefined) | 0.112
COCc1cc(C)nc2sc3c(=O)n(Cc4ccco4)nnc3c12 | -0.445
O=C(NCCc1ccccc1F)/C(=C/c1cccnc1)NC(=O)c1ccccc1 | 0.0991
CCCCN1C(=O)C(NC(C)=O)c2ccccc21 (centres undefined) | 0.127
CC1(C)C(=O)Nc2ccccc2N1C(=O)COC(=O)Cn1cnc2ccccc2c1=O | -0.303
COc1ccc(CCNC(=O)C23CN(Cc4ccccc4)CC2C(c2cccc([N+](=O)[O-])c2)=NO3)cc1 (centres undefined) | -0.283
CCOC(=O)c1nn(-c2ccc(C)cc2)c2nc(Nc3ccccc3)cc(=O)n12 | -0.16
Cc1c(C(=O)C(C)C)n(C)c2ccccc12 | 0.958
CN(C)c1nc(OCCNC(=O)COc2ccc(Cl)cc2Cl)nc(N(C)C)n1 | 0.252

Compound | z-score
Cc1ccc(C(=O)Nc2ccc3c(c2)OCCO3)o1 | 0.0205
Clc1ccc(NNc2ccnc3cc(Cl)ccc23)cc1 | 0.113
Cc1noc(C)c1Cc1c(Cl)cccc1Cl | -0.489
O=C(Oc1cccc(NC(=O)c2ccccc2Cl)c1)c1ccc([N+](=O)[O-])cc1 | 0.271
O=C(Nc1ccc(OC(F)F)c(Cl)c1)[C@@H]1CCCN1C(=O)c1cccs1 | -0.362
O=S(=O)(Nc1ccc(Cc2ccncc2)cc1)c1ccc(Cl)s1 | 0.279
CC(C)NC(=O)CSCc1c(F)cccc1Cl | -0.0579
COc1cccc(C(=O)Nc2nc3c(c(=O)[nH]2)CCCC3)c1 | -0.541
OC(CSc1c(Cl)cccc1Cl)CN1CCN(c2ccccc2F)CC1 (centres undefined) | -0.165
Cc1ccc(NC(=O)NNc2cccc(Cl)n2)cc1 | 0.0783
O=C(Nc1nnc(-c2ccc3c(c2)OCCO3)o1)c1ccc(Cc2ccccc2)cc1 | -0.048
CN(c1ccccc1)C(c1ccc(F)cc1)c1nnnn1CC1CCCO1 (centres undefined) | -1.09
COc1ccc(-c2n[nH]c(=S)n2/N=C/C=C\c2ccccc2OC)cc1 | 0.126
COc1ccc(Oc2nnc(-c3ccc(C)cc3)c3ccccc23)cc1 | -0.0839
Cc1cc(C)nc(N2CCC(C(=O)Nc3nnc(C)s3)CC2)n1 | 0.369
Cc1cccc(C)c1OCCCN1CCCC1 | 0.0506
COc1cccc2cc(C(=O)N3CCc4ccccc43)c(=O)oc12 | -0.212
CCOC(=O)c1ccc(CSc2nnc(C)n2N)o1 | -0.131
O=C(/C=C\c1ccc2c(c1)OCO2)NC1(C(=O)Nc2ccc3c(c2)OCCO3)CCCCC1 | 0.845
Cc1n[nH]c(=O)nc1NC(C)c1ccccc1 (centres undefined) | -0.0669
COc1cc(NC(=O)c2cccnc2Sc2ccc(Cl)cc2)cc(OC)c1OC | -0.134
CC(=O)NC1=C(N(C)C2CCS(=O)(=O)C2)C(=O)c2ccccc2C1=O (centres undefined) | -0.129
CC(=O)Oc1cc2oc(=O)c3c(c2cc1Cl)CCC3 | 0.0481

Compound | z-score
O=S(=O)(Nc1cccnc1)c1ccc(Cl)cc1 | -0.0138
Cc1cc(OC(=O)c2cccs2)ccc1C(C)C | -0.221
COc1ccc(NC(=O)c2ccccc2NS(=O)(=O)c2ccc(C)cc2)c([N+](=O)[O-])c1 | 0.0902
Cc1ccc(NC(=O)CSc2ccc(C(N)=O)cc2[N+](=O)[O-])cc1 | -0.417
COc1ccc(NC(=O)c2cccc(NC(=O)C(C)C)c2)c([N+](=O)[O-])c1 | -0.134
CCOC(=O)C1=C(C)NC(=O)NC1c1ccc(Br)s1 (centres undefined) | -0.44
COc1ccccc1/C=C/C(=O)N1CCCC1 | -0.149
Nc1sccc1C(=O)c1ccccc1 | active: 11
CCCc1cc(O)c2c(C)cc(=O)oc2c1 | -1.44
CCOC(=O)c1c(NC(=O)Cn2cnc([N+](=O)[O-])n2)sc2c1CCCC2 | -0.115
O=C(N/N=C/c1ccncc1)c1cc2c(ccc3ccccc32)o1 | -0.0463
CCN(CC)S(=O)(=O)c1ccc(NC(=O)Cn2c(=O)oc3ccccc32)cc1 | 0.44
O=C(CN1CCCCC1)NCCNc1ccc(C(F)(F)F)cc1[N+](=O)[O-] | 0.134
Cc1ccccc1CNC(=O)c1ccccc1C(=O)O | 1.14
NC(=O)C1CCN(CC(=O)NCc2ccccc2)CC1 | 0.259
CC(=O)CC(C)(C)S(=O)(=O)c1ccc(NC(C)=O)cc1 | -0.279
COc1ccc(C(=O)NCCC2=CCCCC2)cc1 | -0.145
Cc1nn(Cc2ccc(F)cc2)c(C)c1NC(=O)c1cc(-c2ccco2)on1 | 0.924
CC(C)C(=O)Nc1cccc(-c2csc(-c3ccccc3)n2)c1 | 0.193
C=CCn1c(SCc2ccc(C#N)cc2)nnc1-c1cccc(OC)c1 | 0.588
COC(=O)C1=C(C)NC(=O)/C1=C\c1ccco1 | active: 8.73
O=c1c2ccccc2nc(SCc2nc3ccccc3s2)n1CCCO | -0.147
Cc1ccc(S(=O)(=O)/C(=C/Cl)NC(=O)c2ccccc2)cc1 | -0.0768

Compound | z-score
O=C(NCc1ccoc1)c1ccc(NC(=O)c2ccccc2Cl)cc1 | -0.818
COc1ccc(C(CNC(=O)c2ccccc2C)N2CCCC2)cc1 (centres undefined) | -0.0862
c1ccc(Cc2nn3c(-c4ccncc4)nnc3s2)cc1 | -0.842
CCn1c(CSc2nc(C)cc(C)n2)nnc1SCC(=O)Nc1ccccc1 | 0.393
CNC(=O)c1nnc(Cc2ccc(F)cc2)o1 | -0.0918
S=C(c1ccc(N2CCOCC2)cc1)N1CCCCC1 | 0.18
CC(NC(=O)Cc1ccc(F)cc1)c1ccccc1 (centres undefined) | -0.383
COC(=O)c1ccccc1NC(=O)C1CCN(S(=O)(=O)c2cc(C)ccc2OC)CC1 | -0.877
OCCCn1c(-c2ccccc2)n[nH]c1=S | -0.326
O=C(Nc1ccc2c(c1)OCCO2)C1CCN(C(=O)c2ccccc2)CC1 | 0.0783
Cc1cc(NC(=O)COC(=O)c2oc3c(Cl)cccc3c2C)no1 | -0.306
O=C(O)c1ccccc1SC1CC(=O)N(c2ccccc2)C1=O (centres undefined) | -0.154
O=C(Nc1ccccc1C(=O)O)c1ccc(Br)o1 | -0.102
CC(C)c1nc2n[nH]c(N)c2c2c1CCC2 | 0.126
Cc1cccc(C)c1NC(=O)CSc1nnc(NC(=O)CN2CCOCC2)s1 | -0.13
COC(=O)c1ccc(Nc2nc(C)cc(=O)[nH]2)cc1 | -0.0943
COc1ccccc1NS(=O)(=O)c1ccc(C)c(NC(=O)NC2CCCCC2)c1 | 0.0776
C=C(Cl)COC(=O)C1C2C=CC(C2)C1C(=O)O (centres undefined) | 0.125
CCC12CN3CC(CC)(CN(C1)C3c1ccc(OC(C)C)cc1)C2=O (centres undefined) | -0.029
O=C(Cc1ncc(C(F)(F)F)cc1Cl)Nc1cccc(Br)c1 | -0.143
COc1cc(CCC(=O)OCn2nnc3ccccc3c2=O)cc(OC)c1OC | 0.016
CCCC1N2CC3([N+](=O)[O-])CN1CC([N+](=O)[O-])(C2)C3(C)C (centres undefined) | -0.122
Clc1ccc(Cl)c(-c2nn3c(Cn4cnc5ccccc54)nnc3s2)c1 | -0.365

Compound | z-score
c1ccc(CSc2ccc(-c3ccco3)nn2)cc1 | 0.0753
OCCN1CCN(CC(O)COc2ccc3ccccc3c2)CC1 (centres undefined) | -0.0463
O=C(O)/C=C/c1cn(Cc2ccccc2)nc1-c1ccccc1 | 0.117
CCOc1ccccc1C(=O)NC1CC2CCCC(C1)N2C1CC1 (centres undefined) | -0.732
COC(=O)C(NC(=O)Nc1ccccc1OC)C(C)C (centres undefined) | 0.329
O=S(=O)(N/N=C1\CC(c2ccccc2)Oc2ccccc21)c1ccccc1 (centres undefined) | -0.135
O=C(c1ccc(Oc2ccccc2)cc1)c1nc2c(n1O)CCCC2 | -1.84
CCN(CC)CCNC1=CC(=O)OC12CCCCC2 | 0.653
O=C(OCC1OC(n2cnc3c(N(C(=O)c4ccccc4)C(=O)c4ccccc4)ncnc32)C(O)C1F)c1ccccc1 (centres undefined) | 0.0152
N/C(=N\OC(=O)c1ccc(Br)cc1)c1ccccc1 | -0.37
C/C(=N\NC(=O)COc1ccc(C)cc1C(C)C)c1ccc(-n2ccnc2)cc1 | 2.53
Cc1nnc(SCC(=O)NCCOc2ccc(Cl)cc2)n1-c1ccccc1 | -0.847
Cc1cc(C)nc(-n2nc(C)cc2NC(=O)c2ccc(Br)o2)n1 | -0.705
CCN(CC(=O)Nc1ccc2c(c1)OC(F)(F)O2)Cc1nc2ccccc2c(=O)[nH]1 | -0.0909
C=CCn1c(NCc2ccc(N(C)C)cc2)nc2ccccc21 | 0.0461
CC(/C=C/c1ccccc1)=N\NC(=O)CNC(=O)c1ccccc1Cl | -0.377
CCOC(=O)c1ccc(Oc2nc(N(C)C)nc(N(C)C)n2)cc1 | 0.229
CCOC(=O)/C(O)=C/c1ncc(C(F)(F)F)cc1Cl | -0.187
COC(=O)c1sc(NC(=O)CSc2nnnn2-c2ccc(C)cc2C)nc1C | -0.131
CCCCCn1c(Sc2ncccn2)nc2c1c(=O)[nH]c(=O)n2C | 0.38
COc1ccc(N2CCN(C(c3ccccc3OC)c3nnnn3Cc3ccco3)CC2)cc1 (centres undefined) | -1.36
COc1cc(OC)c2c(C)cc(=O)oc2c1 | -0.0168
